# Measurements as given in PubChem BioAssay AID1346428 (National Center for Advancing Translational Sciences (NCATS), 2018).
# Out of some 48,000 compounds screened, about 1,200 (2.5%) were called active. Inconclusive results (about 2%) are left out.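 The calls were made as follows: active = activation of at least 60% and not above a set upper limit (about 1 call in 100 departs from these limits); inconclusive = activation of 40% to 60%, or above that upper limit; inactive = activation under 40%.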 Some of the results follow.
# Target: Probable G-protein coupled receptor 32 (Homo sapiens) (UniProt O75388)
# Sequence of UniProt O75388 (O75388 whole entry, looked up): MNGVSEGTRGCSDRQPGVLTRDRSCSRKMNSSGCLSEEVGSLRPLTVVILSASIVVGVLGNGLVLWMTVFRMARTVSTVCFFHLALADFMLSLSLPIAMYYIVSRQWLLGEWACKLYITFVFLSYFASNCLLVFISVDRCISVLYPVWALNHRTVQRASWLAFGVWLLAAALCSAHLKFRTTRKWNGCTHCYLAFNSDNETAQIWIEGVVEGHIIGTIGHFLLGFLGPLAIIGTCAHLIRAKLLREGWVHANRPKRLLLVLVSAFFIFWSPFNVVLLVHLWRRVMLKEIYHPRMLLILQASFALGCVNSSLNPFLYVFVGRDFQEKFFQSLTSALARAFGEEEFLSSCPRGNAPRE
# Test: qHTS for Agonists of Human Resolvin D1 Receptor DRV1; also: 0% is about no effect
# Settings: CHO-K1 GPR32 beta-arrestin PathHunter luminescence, 90 min; at 76.9 µM; active compounds read high; zero percent set by DMSO-only wells
# Outline: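 CHO-K1 cells stably expressing ProLink-tagged GPR32 and Enzyme Activator-tagged beta-arrestin were seeded at 2,500 cells/well overnight, exposed to compounds for 90 min at 37 °C, then read by beta-Gal complementation chemiluminescence after 1 h detection reagent.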
row,SMILES,activation
1,Cc1ccc(NC(=O)C2CCN(S(=O)(=O)c3ccc4c(c3)CCCC(=O)N4)CC2)cc1N(C)C,inactive: 9.54%
2,CCOc1ccc(NC(=O)CSc2nc3ccsc3c(=O)n2CCC(C)C)cc1,inactive: -20.5%
3,COc1ccc(-c2nc(CSCC(=O)NCCC(C)C)c(C)o2)cc1OC,inactive: -21.3%
4,O=C(CC1Sc2ccccc2NC1=O)Nc1cccc(C(F)(F)F)c1 (stereo not drawn),inactive: 31.2%
5,COc1ccc(OC)c(NC(=O)C(C)n2c(=O)c(-c3ccccc3NC(C)=O)nc3ccccc32)c1 (stereo not drawn),inactive: -28.1%
6,COc1ccc(OC)c(CNC(=O)NCc2noc3ccc(C)cc23)c1,inactive: -13.8%
7,Cc1cc(Nc2cccc(Cl)c2)nc2ccc(NC(=O)COc3ccc(Cl)cc3)cc12,inactive: 37.4%
8,O=C(CSc1cn(CC(=O)N2CCCCC2)c2ccccc12)NCc1ccccc1Cl,inactive: -15.6%
9,CC(C)c1ccc(NC(=O)c2cc3c(=O)[nH]c4ccccc4c3n2C)cc1,inactive: 15%
10,CCN1C(=O)c2ccccc2S(=O)(=O)c2ccc(C(=O)NCc3ccccc3OC)cc21,inactive: -24.7%
11,CCC1CN(C(=O)N2CCC(C(=O)NCc3cccc(F)c3)CC2)c2cc(C)ccc2O1 (stereo not drawn),inactive: -15.4%
12,O=C(CN1C(=O)c2cccnc2Sc2ccccc21)Nc1cc(F)ccc1F,inactive: -13.7%
13,Cc1ccc(-n2nc(C)c3c(C(=O)NCCc4ccc(S(N)(=O)=O)cc4)cc(C)nc32)cc1,inactive: -7.96%
14,CCN(CC)c1nn2c(=O)c(C(=O)NCc3ccccc3Br)cnc2s1,inactive: -14.1%
15,Cn1nc(C(=O)NCc2ccccc2Cl)c2c1-c1ccccc1SC2,inactive: -8.69%
16,Cc1cccc(NC(=O)c2ccc(Cn3nc(N4CCN(c5ccccc5)CC4)ccc3=O)o2)c1C,inactive: 38.2%
17,O=C(NCCc1ccc(Cl)cc1)c1cc2c(s1)-c1ccccc1OC2,active: 62.4%
18,CCOc1ccc(NC(=O)N2CCN(C(=O)c3nsc4ccccc34)CC2)cc1,inactive: -3.5%
19,COc1cc(OC)c2c(C)c(CC(=O)NCc3ccccc3OC)c(=O)oc2c1,inactive: 14.6%
20,COc1ccc(-c2cc(C(F)(F)F)nc(SCC(=O)N(C)Cc3ccccc3)n2)cc1,inactive: -26.7%
21,O=S(=O)(Nc1cccc(-c2ccc(N3CCOCC3)nn2)c1)c1ccc(F)c(C(F)(F)F)c1,inactive: 29.9%
22,COc1ccc(CCNC(=O)c2ccc3c(c2)CCN3S(=O)(=O)c2ccc(C)cc2)cc1OC,inactive: 6.25%
23,Brc1c(Br)c(Br)c2[nH]cnc2c1Br,inactive: 4.71%
24,Cc1ccc(NC(=O)CSc2nccn2-c2ccccc2)cc1,inactive: -10.5%
25,O=C(COc1ccccc1Cl)Nc1ccc2nc(SCC(=O)N3CCOCC3)sc2c1,inactive: 3.32%
26,CCSc1nc2sc3c(c2c(=O)n1-c1ccc(C)c(Cl)c1)CCN(C(C)=O)C3,inactive: 8.05%
27,O=S(=O)(c1ccc2nc(Nc3ccc(Br)cc3F)ccc2c1)N1CCCCC1,inactive: -13.7%

row,SMILES,activation
1,O=C(CCNS(=O)(=O)c1ccc2c(c1)CCCC(=O)N2)NCc1ccc(Cl)cc1,inactive: 7.41%
2,Cc1cc(Cl)ccc1OCCSc1nnc(-c2cccs2)o1,inactive: -4.65%
3,Cc1cc(=O)n(Cc2ccc(Br)cc2F)c2c1c(C)nn2-c1ccccc1,inactive: -20.7%
4,Cc1ccc(NC(=O)Cn2c(=O)n(CCCCC(=O)NCCc3ccccc3)c(=O)c3ccccc32)cc1,inactive: -3.24%
5,Cc1ccccc1Cn1cc(S(=O)(=O)c2ccc(F)cc2)c(=O)c2cc3c(cc21)OCO3,inactive: 1.83%
6,COC(=O)c1sccc1S(=O)(=O)N(CC(=O)Nc1cc(F)ccc1F)c1ccc(C)c(C)c1,inactive: -1.88%
7,CCc1nccn1S(=O)(=O)c1cc(Br)ccc1Br,inactive: -4.63%
8,COc1ccc(C)cc1NC(=O)CN(C)S(=O)(=O)c1ccc2[nH]c(=O)oc2c1,inactive: 3.17%
9,COC(=O)c1ccc2c(c1)N(CC(=O)Nc1ccc(C)cc1Cl)C(=O)c1ccccc1S2,inactive: -15.5%
10,COc1ccc2c(c1)CC(C(=O)Nc1cc(OC)c(OC)c(OC)c1)CO2 (stereo not drawn),inactive: -4.09%
11,Cc1cccc(CCNC(=O)CCc2c(C)nc3c(c(C)nn3-c3ccccc3)c2C)c1,inactive: -16.5%
12,COc1ccc(OC)c(CNc2ncnc3onc(C)c23)c1,inactive: 4.1%
13,CCOC(=O)c1cc2c(=O)n3ccccc3nc2n(C(C)C)c1=NC(=O)c1c(-c2c(F)cccc2Cl)noc1C,inactive: 14.1%
14,CCc1cccc(C)c1NC(=O)c1cc(S(=O)(=O)N2CCN(c3ccccc3)CC2)ccc1F,inactive: 20.3%
15,Clc1ccc(CNc2ncnc3onc(-c4ccc(Cl)cc4)c23)cc1,inactive: 1.99%
16,CN1C(=O)c2ccccc2Sc2ccc(NC(=O)N3CCN(c4cccc(Cl)c4)CC3)cc21,inactive: 10.7%
17,CN(C)c1ccc(C(=O)NCc2ccc3c(c2)CCN3C(=O)c2ccc(Cl)cc2)cc1,inactive: -21.5%
18,COc1ccc(Cl)cc1NC(=O)CCn1nc(C)cc1C,inactive: -0.267%
19,COc1ccc(C(=O)NCc2ccc3c(c2)CCN3C(=O)c2ccc(Cl)cc2)c(OC)c1,inactive: -21.9%
20,COc1cc(OC)cc(C(=O)Nc2cccc(-c3cn4ccsc4n3)c2)c1,inactive: -11.2%
21,CCC(Cc1ccccc1)NC(=O)c1cccc(Nc2nc3ccccc3nc2-n2nc(C)cc2C)c1 (stereo not drawn),inactive: 0.319%
22,CCC1CN(C(=O)N2CCC(C(=O)NCCC3=CCCCC3)CC2)c2ccccc2O1 (stereo not drawn),inactive: -11%
23,CCOc1ccc(NC(=O)CSc2cn(CC(=O)N3CCOCC3)c3ccccc23)cc1,inactive: -11.5%
24,CC(C)OCCCn1c(SCc2ccccc2Cl)nc2c(sc3ccccc32)c1=O,inactive: 40.6%
25,CCC1CCCCN1C(=O)Cn1c(=O)n(-c2ccc(Cl)c(Cl)c2)c(=O)c2c(C)c(C(=O)N(C)C)sc21 (stereo not drawn),inactive: -23.9%
26,CCOc1ccc(NC(=O)C2CCC(CNS(=O)(=O)c3ccc4c(c3)CCCC(=O)N4)CC2)cc1 (stereo not drawn),inactive: -29.6%
